# In paper PMC6919601, “Identification of Plasmodium dipeptidyl aminopeptidase allosteric inhibitors by high throughput screening” (PLoS ONE, 2019):
# Among all 110,000 compounds or so, about 230 (0.21%) showed an effect of 50% or more. The list shows a part of the results.
# Biological target: DPAP1 (Plasmodium falciparum, UniProt Q8IIJ9)
# Assay: primary screen, percent inhibition; read by cleavage of a fluorogenic dipeptide substrate; higher = more effect of the substance
# Parameters: species or system P. falciparum D10 trophozoite lysates; single well
# 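Further: 30 min substrate incubation versus DMSO and 10 µM JCP410 controls.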
# Chain of DPAP1 (Q8IIJ9 whole entry, looked up): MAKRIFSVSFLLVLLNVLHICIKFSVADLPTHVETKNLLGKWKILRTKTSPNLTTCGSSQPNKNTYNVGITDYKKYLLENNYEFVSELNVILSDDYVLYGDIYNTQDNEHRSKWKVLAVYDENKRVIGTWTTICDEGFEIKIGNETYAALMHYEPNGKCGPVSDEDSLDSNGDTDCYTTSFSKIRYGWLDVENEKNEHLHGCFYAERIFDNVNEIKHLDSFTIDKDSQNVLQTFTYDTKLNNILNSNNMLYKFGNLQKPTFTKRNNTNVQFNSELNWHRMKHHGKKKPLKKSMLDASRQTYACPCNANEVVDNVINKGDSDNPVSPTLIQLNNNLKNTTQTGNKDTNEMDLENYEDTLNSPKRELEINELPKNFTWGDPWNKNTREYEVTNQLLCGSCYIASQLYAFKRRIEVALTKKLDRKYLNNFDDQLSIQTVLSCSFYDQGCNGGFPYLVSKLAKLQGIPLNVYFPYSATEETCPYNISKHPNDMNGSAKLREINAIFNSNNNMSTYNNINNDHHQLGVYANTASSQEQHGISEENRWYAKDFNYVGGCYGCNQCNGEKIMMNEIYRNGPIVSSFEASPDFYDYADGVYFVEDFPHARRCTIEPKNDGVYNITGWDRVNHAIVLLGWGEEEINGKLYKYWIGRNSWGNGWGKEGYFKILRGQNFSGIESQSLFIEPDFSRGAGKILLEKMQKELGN
row,SMILES,% Inhibition @ 10 uM [%]
1,CC(=O)c1nc(-c2ccccc2)cc(-c2ccccc2)n1,1.42
2,CCN1C(=O)/C(=C/c2ccc3c(c2)OCO3)S/C1=N/c1ccc(OC)cc1,0.909
3,O=c1c2ccccc2ncn1-c1ccccc1F,3.19
4,CCOC(=O)N1CCC(NC(=O)c2cc3c(s2)CS(=O)(=O)C3)CC1,-5.54
5,COc1cccc(N(CC(=O)Nc2c(C)cccc2C)S(=O)(=O)c2ccccc2)c1,0.324
6,CCOc1ccc(NC(=O)CN(c2cc(C(F)(F)F)ccc2Cl)S(C)(=O)=O)cc1,-5.54
7,CCOc1ccc(C(=O)Nc2ccc(S(=O)(=O)NC(C)=O)cc2)cc1,-3.45
8,COc1cc(C)c(CN2CCC(O)C2)cc1C (centres unmarked),1.9
9,O=C(CNS(=O)(=O)c1cc(Cl)ccc1Cl)Nc1ccc(OCc2ccccc2)cc1,-0.473
10,CC1CCCN(S(=O)(=O)c2ccc(Cl)cc2)C1 (centres unmarked),0.526
11,O=C(Nc1ccccc1)C1COc2ccccc2O1 (centres unmarked),0.909
12,COc1cc([N+](=O)[O-])cc(CN2CCC(C)CC2)c1O,-1.75
13,Cc1ccc(S(=O)(=O)Nc2ccc(-c3cn4cccnc4n3)cc2)cc1,-1.63
14,O=c1oc2ccccc2cc1-c1csc(-c2ccc(Br)cc2)n1,4.65
15,C(#Cc1ccc(C#CCN2CCCC2)cc1)CN1CCCC1,3.25
16,Cc1cc(OCCCCCN2CCNCC2)c(C)cc1Cl,-14.4
17,Cc1ccc(-c2cc(C(=O)NCC3CCCO3)no2)cc1 (centres unmarked),0.221
18,Cc1ccc(/C=C2\N=C(c3cccc(Br)c3)OC2=O)o1,3.31
19,c1ccc(-c2csc(NCc3ccco3)n2)cc1,-0.178
20,O=C1c2ccccc2C2(c3ccccc3)NCCN12 (centres unmarked),-1.37
21,CCn1cc(/C=C(\NC(=O)c2ccc(OC)c(OC)c2)C(=O)N2CCOCC2)c2ccccc21,-5.36
22,COc1ccc(CC(=O)c2ccc(OC)c(OC)c2C)cc1OC,3.53
23,CC1CCCC(C)N1C(=O)c1cc(-c2ccc(F)cc2)on1 (centres unmarked),0.0654
24,CCN1CCN(C(=O)CSc2c3c(nc4ccc(Cl)cc24)CCCC3)CC1,-4.96
25,Cc1cccc(C(=O)N2CCc3ccccc3C2)c1,-1.62
26,Cc1ccc2c(c1)Cc1c(nc(-c3ccc(F)cc3)nc1SCC(N)=O)O2,0.44

row,SMILES,% Inhibition @ 10 uM [%]
1,O=c1/c(=C/c2ccccc2)sc2nnc(-c3ccccc3Cl)n12,4.68
2,COc1cc(NC(=O)c2cccc(C)c2)ccc1NC(=O)c1ccco1,-7.76
3,CCN1CCN(C(=O)Cn2ncc3c(C)n(Cc4ccc(Cl)cc4)c(C)c3c2=O)CC1,1.22
4,COc1cc(S(=O)(=O)Nc2cccc(-c3cn4ccsc4n3)c2)c(C)cc1C,4.7
5,COc1ccc(-c2[nH]nc3c2C(c2ccccc2Cl)NC3=O)cc1 (centres unmarked),-11.3
6,c1ccc2c(c1)[nH]c1c2ccc2nonc21,-6.36
7,Cc1ccc2c(c1)-c1onc(C(=O)NC(C)c3ccccc3)c1CO2 (centres unmarked),0.0281
8,CCOC(=O)N1CCN(C(=O)c2ccc(CNS(=O)(=O)c3ccc(C)cc3)cc2)CC1,-1.54
9,COC(=O)c1cc2sc(Cl)cc2n1Cc1cccc(F)c1,-11.6
10,O=C(COc1ccc(Cl)cc1Cl)Nc1c2c(nn1-c1ccc(F)cc1)CS(=O)(=O)C2,14.1
11,COC(=O)/C(C#N)=C/c1c(Oc2cc(C)cc(C)c2)nc2c(C)cccn2c1=O,0.315
12,CCn1c(CNC(=O)COC)nc2ccccc21,-0.228
13,COc1cc(/C=C2/NC(=O)NC2=O)c(Br)cc1OCC(=O)O,-0.178
14,CCC1CCCCN1C(=O)c1cccs1 (centres unmarked),1.91
15,COC(=O)c1sc(N2C(=O)c3oc4ccccc4c(=O)c3C2c2cccc(O)c2)nc1C (centres unmarked),1.19
16,CC(C)C[C@H](NC(=O)c1ccc(Oc2cccnc2)cc1)C(=O)NCC#N,3.66
17,NS(=O)(=O)c1ccc(CNC(=O)c2ccco2)cc1,-3.78
18,C=CCSc1nc2ccccc2n1CC(=O)O,4.41
19,CS(=O)(=O)N(CC(=O)NCc1ccccc1Cl)c1cc(Cl)ccc1Cl,2.76
20,CC(C)CNCC(=O)Nc1sc2c(c1C(=O)Nc1ccc(Br)cc1)CCC2,-6.07
21,CCCc1nnc2sc(NC(=O)c3cc(OCC)c(OCC)c(OCC)c3)nn12,-2.79
22,COc1ccc(C(C)(C)C)cc1NC(=O)C1CC1C (centres unmarked),-5.35
23,CCOC(=O)C1=C(CN2CCC(c3ccccc3)C2)NC(=O)NC1c1ccc(OC)cc1 (centres unmarked),1.93
24,COCCCNC(=O)C1CCCN(c2nnc(C)c3c(C)n(-c4ccc(Cl)cc4)nc23)C1 (centres unmarked),0.535
25,Cc1oc2ncn(C)c(=O)c2c1C(=O)NC1CCCCC1,1.15
26,Cc1ccc(C)c(S(=O)(=O)c2nnn3c2nc(NCCc2ccccc2)c2sccc23)c1,-10.8

row,SMILES,% Inhibition @ 10 uM [%]
1,COc1ccc2c(=O)c(Oc3ccccc3)c(C(F)(F)F)oc2c1OC,-7.02
2,Cc1ccc(N2CCCn3c2cc(C)c(C#N)c3=O)cc1C,-3.16
3,CCc1nnc(NC(=O)CSc2nc(SC)ns2)s1,2.21
4,C/C=C(\C)CN1CCN(C(C)=O)CC1,0.0792
5,CC1CCC2C(=O)N(c3cccc(Cl)c3)C(=O)C2C1 (centres unmarked),-8.06
6,O=C1C=C(NCCOC23CC4CC(CC(C4)C2)C3)C2(CCCCC2)O1,-1.69
7,CCN(Cc1ccccc1)C(=O)Cn1c(=O)cc(C(F)(F)F)c2c(C)nn(-c3cccc(F)c3)c21,2.31
8,O=C(CN1C(=O)C(=O)c2ccccc21)Nc1ccc(Cl)cc1,1.79
9,Cc1ccccc1Cn1c(CCNC(=O)Cc2ccccc2)nc2ccccc21,-6.55
10,COc1ccc(N(CC(=O)Nc2cc(Cl)cc(Cl)c2)S(C)(=O)=O)cc1OC,2.75
11,Cc1cc(C)c(C#N)c(SCC(=O)c2ccc(F)cc2)n1,5.11
12,O=C(Nc1nccs1)c1cc2cc(Br)ccc2oc1=O,5.01
13,COc1ccccc1C(=O)N(Cc1nc(-c2ccc(Cl)cc2)no1)C(C)C,1.66
14,CC(C)N(Cc1nc(-c2ccc(Cl)cc2)no1)C(=O)CC(C)(C)C,-5.58
15,CC1C2CC(C(S(N)(=O)=O)C2=O)C1(C)C (centres unmarked),2.55
16,COc1cc(NC(=O)c2ccccc2F)ccc1NC(=O)c1ccco1,0.475
17,COc1cc(NS(=O)(=O)c2ccc(NC(=O)c3ccc(Br)s3)cc2)nc(OC)n1,7.04
18,COC(=O)c1conc1-c1cccnc1,-0.711
19,CC1CC(C)CN(C(=O)CCCc2c[nH]c3ccccc23)C1 (centres unmarked),0.238
20,NC1=C(c2nc3ccccc3[nH]2)C(=O)CN1Cc1ccco1,3.74
21,CCCCn1c2ccccc2n2c(C(=O)OC)c(C)nc12,-4.98
22,CCSc1nnc(NC(=O)Cn2cc(S(=O)(=O)NC)c(S(=O)(=O)NC)c2)s1,0.709
23,CCN(CC)c1ccc(Nc2nc(-c3c(C)nc4ncccn34)cs2)cc1,-0.711
24,COc1cc(OC)c(-c2nnc3n(Cc4ccccc4)c(=O)c4ccccc4n23)cc1OC,-5.37
25,CCSc1nc2c(c(=O)[nH]c(=O)n2C)n1CCc1ccccc1,4.67
26,CCCCc1n[nH]c(SCC(=O)Nc2ncccn2)n1,2.03

row,SMILES,% Inhibition @ 10 uM [%]
1,O=c1[nH]c(=O)n(Cc2ccccc2)c2c1C(C(F)(F)F)(C(F)(F)F)NC(c1ccco1)=N2,1.57
2,C=CCN1C(=O)N/C(=C/c2ccc(OC(C)CC)c(Br)c2)C1=O (centres unmarked),3.68
3,COc1ccccc1N1CCN(Cc2ccc(OC)c(C)c2C)CC1,0.847
4,Cc1cc(C)nc(N2CCNCC2)n1,-3.75
5,COc1ccc(OC)c(N(CC(=O)Nc2ccc(C(C)C)cc2)S(C)(=O)=O)c1,-1.43
6,Cc1c(Cl)cccc1NC(=O)CN1C(=O)c2cccc3cccc1c23,-0.949
7,COc1ccc(-c2[nH]ncc2/C=C2\OC(=O)c3c2cc(C)nc3S)cc1,26
8,CCn1cc(CN(C)C(=O)c2cc3n(n2)C(C(F)(F)F)CC(c2ccco2)N3)c(C)n1 (centres unmarked),-1.18
9,CCOC(=O)C1CCCCN1Cc1cccc(F)c1 (centres unmarked),3.1
10,Cc1ccc2[nH]c(C(F)C(F)(F)F)nc2c1 (centres unmarked),-5.5
11,O=C1C=C(N2CCN(S(=O)(=O)c3ccccc3)CC2)C(=O)N1c1cccc(Cl)c1,-0.988
12,N#CC1=C(N)OC2=C(C(=O)CCC2)C12C(=O)c1ccccc1C2=O,-0.216
13,COc1ccc(C(=O)N2CCc3ccccc32)cc1Br,-2.28
14,Cc1ccc(C)c(S(=O)(=O)NCc2ccc(C(=O)NCc3ccco3)cc2)c1,6.94
15,CC(=O)c1cc2c(s1)SCc1ccccc1C2,8.94
16,Cc1nc2c(cc1C(=O)/C=C/c1ccc(N(C)C)cc1)CCCC2,-1.98
17,Cc1cc(C)c(S(=O)(=O)NCC(c2cccnc2)N2CCN(Cc3ccccc3)CC2)c(C)c1 (centres unmarked),-3.51
18,CCC1(C(O)(C#CCN(CCO)CCO)c2ccccc2)CCCC1 (centres unmarked),0.408
19,O=C(c1ccco1)N1CCN(C(=O)c2cc3c(s2)-c2ccc(Cl)cc2SC3)CC1,0.953
20,CC(C)CCn1c(SC(C)C)nc2c1c(=O)[nH]c(=O)n2C,0.983
21,COCC(=O)Nc1nc2nccc(C)n2n1,-1.31
22,Cn1c(=O)c2c(nc(CN3CCCCC3)n2Cc2ccccc2)n(C)c1=O,-0.499
23,CC1CCc2c(sc3nnn(CC(=O)c4cc5ccccc5o4)c(=O)c23)C1 (centres unmarked),-2.71
